Experimental data published in PubChem BioAssay AID2147 (National Center for Advancing Translational Sciences (NCATS), 2009).
Several values for one entry are separate records, joined by “and”; a condition that tells them apart may be missing. Equal entries are not always repeated. The whole screen tested about 230,000 compounds, of which about 3,600 (1.6%) were called active. This list was built around the results that the source calls inconclusive (neither active nor inactive); the mix of calls is not that of the screen. The call rests on the fitted dose curve; in most records, active means well fitted inhibition curve with a large enough effect (not every such curve was filed as active); inconclusive means small, poorly fitted or top-dose-only effect, or another doubt; inactive means no such curve, though single readings can be large or run the other way. A potency beside an inconclusive call is a rough fit, not a confirmed value.

target: Lysine-specific demethylase 4E (Homo sapiens) (UniProt B2RXH2); assay: qHTS Assay for Inhibitors of Human Jumonji Domain Containing 2E (JMJD2E); conditions: JMJD2E catalytic domain, FDH-coupled NADH fluorescence (FDH is formaldehyde dehydrogenase); series mostly up to 57.1 µM
Further: nearly all actives have a fitted effect of over 50% in size.
Potency means the concentration at half of the fitted maximal effect; tags describe the fitted curve by direction and shape.

Sequence of UniProt B2RXH2 (B2RXH2 whole entry, looked up, the tested form may be a part): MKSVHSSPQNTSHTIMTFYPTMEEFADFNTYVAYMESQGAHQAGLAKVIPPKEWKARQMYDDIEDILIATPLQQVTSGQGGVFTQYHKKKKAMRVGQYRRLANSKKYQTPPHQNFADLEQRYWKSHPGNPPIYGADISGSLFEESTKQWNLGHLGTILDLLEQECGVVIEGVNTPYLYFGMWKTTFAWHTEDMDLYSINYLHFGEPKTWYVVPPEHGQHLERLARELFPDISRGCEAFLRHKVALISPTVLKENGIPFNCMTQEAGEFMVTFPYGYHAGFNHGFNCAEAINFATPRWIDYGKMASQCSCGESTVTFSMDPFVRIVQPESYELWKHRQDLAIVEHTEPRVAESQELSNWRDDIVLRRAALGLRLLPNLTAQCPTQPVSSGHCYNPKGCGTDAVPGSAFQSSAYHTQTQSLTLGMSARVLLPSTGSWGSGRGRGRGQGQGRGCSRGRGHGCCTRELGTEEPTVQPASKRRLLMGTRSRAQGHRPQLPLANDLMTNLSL

Compound | Potency
C[N+](C)(C)CCOC(=O)C1(c2ccccc2)CCCC1 | inactive
O=C(Nc1ccc2oc(-c3cccnc3)nc2c1)c1ccc([N+](=O)[O-])o1 | inconclusive: 39.8 µM [inhibitor, single point]
CC(=O)c1c(C(C)=O)c(C)n(-c2ccc(N)c(C)c2)c1C | inactive
Cc1ccc(-n2c(C)cc(/C=N/NC(=O)CC3(C)OCCO3)c2C)cc1 | inconclusive: 39.8 µM [inhibitor, single point]
O=C(CN1CCN(c2ccccc2O)CC1)Nc1ccc([N+](=O)[O-])cc1Br | inactive
COCC(=O)N1CCCC(C(=O)c2ccc(-c3ccccc3)c(F)c2)C1 (stereo unspecified) | inactive
Fc1cc(F)cc(-c2oncc2-c2nnnn2-c2ccccc2)c1 | inactive
Cc1nn(C(C)(C)C)c(OC(=O)c2ccc3c(c2)OCO3)c1S(=O)(=O)c1ccccc1 | inconclusive: 39.8 µM [inhibitor, single point]
O=c1cc(-c2ccccc2)[nH]c2cc(Cl)ccc12 | inactive
Cc1cccc(CS(=O)(=O)c2nnc([C@H](Cc3ccccc3)NC(=O)OC(C)(C)C)o2)c1 | inactive
CCOC(=O)c1cc(C#N)c(NCc2ccccc2)nc1C | inconclusive: 28.2 µM [inhibitor, partial curve]
O=C(N[C@@H](Cc1ccccc1)c1nc2ccccc2[nH]1)c1cc([N+](=O)[O-])ccc1Cl | inactive
Cc1cccc(CNc2cc(-c3cccc(C#N)c3)ncn2)c1 | inconclusive: 31.6 µM [inhibitor, partial curve]
COc1ccccc1C1C2C(=O)N(c3ccccc3)C(=O)C2ON1c1ccccc1 (stereo unspecified) | inactive
COc1ccc2c(c1)c1ncn(Cc3ccc(F)cc3)c(=O)c1n2C | inconclusive: 28.2 µM [inhibitor, partial curve]
COc1ccccc1NC(=O)C1=C(C)Nc2ncnn2C1c1ccccc1C (stereo unspecified) | inconclusive: 22.4 µM [inhibitor, partial curve]
CC(C)(C)c1ccc(-c2nc(C#N)c(NCc3ccncc3)o2)cc1 | inconclusive: 31.6 µM [inhibitor, partial curve]
O=C1C(SCCO)=C(SCCO)C(=O)c2ccccc21 | inconclusive: 891 nM [inhibitor, full curve, poor fit] and inconclusive: 2.24 µM [inhibitor, full curve, poor fit]
Cc1ccc(C(=O)Nc2nc3ccc(S(C)(=O)=O)cc3s2)o1 | inconclusive: 12.6 µM [inhibitor, partial curve]
COc1ccc2[nH]c(=O)c(COC(=O)c3cccs3)cc2c1 | inconclusive: 31.6 µM [inhibitor, single point]
COc1cc(C(c2c(C)[nH][nH]c2=O)c2c(C)[nH][nH]c2=O)ccc1OCc1ccc([N+](=O)[O-])cc1 | inconclusive: 28.2 µM [inhibitor, single point]
Cc1c(C(=O)NCc2ccc3c(c2)OCO3)oc2ccc(S(=O)(=O)N3CCCCC3)cc12 | inconclusive: 35.5 µM [inhibitor, single point]
Cc1ccc(NC(=O)CN2C(=O)S/C(=C\c3cccn3-c3cccc(C(=O)O)c3)C2=O)c(C)c1 | inconclusive: 39.8 µM [inhibitor, single point]
COc1ccc(C(=O)Oc2ccc3oc(=O)sc3c2)cc1 | inactive

Compound | Potency
CC(C)C1Nc2ccc(S(=O)(=O)N3CCOCC3)cc2NC1=O (stereo unspecified) | inconclusive: 39.8 µM [inhibitor, single point]
CC1(c2ccccc2)NC(=O)N(CC(=O)Nc2cc(S(=O)(=O)N3CCOCC3)ccc2Cl)C1=O (stereo unspecified) | inconclusive: 3.98 µM [inhibitor, single point]
O=C(OCc1cccc(F)c1)c1ccc2c(=O)n3c(nc2c1)CCC3 | inactive
CC(C)(C)c1ccc(C(=O)NCCCN2CCN(CCCNC(=O)c3ccc(C(C)(C)C)cc3)CC2)cc1 | inactive
CCOC(=O)c1ccc(N=C2SC(C(=O)NC)CC(=O)N2CCc2ccccc2)cc1 (stereo unspecified) | inactive
N#C/C(=C\c1cccnc1)c1nc2ccccc2[nH]1 | inconclusive: 28.2 µM [inhibitor, single point]
CC(C)=CCOc1cc2oc(=O)ccc2cc1O | inconclusive: 25.1 µM [inhibitor, partial curve]
CC(=O)OC1CC(OC(C)=O)[C@]2(C)C(CC(O)[C@]3(C)C2CC[C@@]2(C)C(c4ccoc4)OC(=O)C4O[C@]432)C1(C)C (stereo partly specified) | inactive
Cc1ccc(SCCNC(=O)c2ccccc2C)cc1 | inactive
O=c1oc2ccccc2cc1-c1nnc(NCc2ccco2)s1 | inconclusive: 22.4 µM [inhibitor, partial curve]
Cc1cc(C(F)(F)F)c(C#N)c(N2CCOCC2)n1 | inconclusive: 39.8 µM [inhibitor, single point]
Cc1cccc(Nc2ncc3c(n2)CC(c2ccco2)CC3=O)c1 (stereo unspecified) | inconclusive: 35.5 µM [inhibitor, single point]
CC1CC(C)CN(S(=O)(=O)c2cccc(C(=O)N3C(=O)c4cccc(N)c4C3=O)c2)C1 (stereo unspecified) | inconclusive: 25.1 µM [inhibitor, single point]
O=C(Nc1ccc(N2CCN(C(=O)c3ccccc3)CC2)c(Cl)c1)c1ccc(Br)o1 | inconclusive: 39.8 µM [inhibitor, single point]
Cc1sc(NC(=O)c2cc(-c3ccccc3)nc3ccccc23)c(C(N)=O)c1C | inactive
CCOc1ccc(NC(=O)CC2SC(=O)N(c3ccccc3)C2=O)cc1 (stereo unspecified) | inactive
S=C(Nc1ccccc1)N1CCN(C2CCCCC2)CC1 | inactive
CC1=C(C(=O)OCC(Br)(Br)Br)C(c2ccc(Br)cc2)NC(=O)N1CCCC(=O)O (stereo unspecified) | inactive
O=c1c(-c2ccccc2)n[nH]c2ccccc12 | inconclusive: 28.2 µM [inhibitor, single point]
Cc1cc(C)cc(N2C(=O)CC(Sc3ncn[nH]3)C2=O)c1 (stereo unspecified) | active: 1.26 µM
CC(C)N(C(=O)C(F)(F)F)C(C(=O)NC1CCCCC1)c1ccncc1 (stereo unspecified) | inconclusive: 28.2 µM [inhibitor, single point]
COC(=O)c1nn(-c2ccc3c(c2)CCN3C(C)=O)cc1O | inconclusive: 31.6 µM [inhibitor, partial curve]
COC(=O)c1c(CSc2ccc(C)c(C)c2)noc1C(=O)NCc1ccc(OC)cc1 | inactive
COc1ccc(C(=O)NC(=O)Nc2cc(C)ccn2)cc1 | inconclusive: 39.8 µM [inhibitor, single point]

Compound | Potency
CCn1c(=O)c([N+](=O)[O-])c(NCC(O)c2ccccc2)c2ccccc21 (stereo unspecified) | inactive
COc1cc(OC)c2ccc(=O)oc2c1C(CC(=O)N1CCOCC1)c1ccc(N(C)C)cc1 (stereo unspecified) | inconclusive: 39.8 µM [inhibitor, single point]
COc1ccc(CNC(=O)C(c2cccs2)N(C(=O)c2csnn2)C2CC2)cc1 (stereo unspecified) | inactive
COc1cccc(/C=C2\SC(=O)NC2=O)c1OCc1ccc(C(=O)O)cc1 | inactive
O=C(O)CSc1nnc(Cc2ccccc2)n1Cc1ccccc1 | inactive
CSc1ccccc1-n1nnnc1SCc1ccccc1 | inactive
Cc1cccc2cc(C#N)c(NCCNC(=S)NCCCN3CCOCC3)nc12 | inconclusive: 0.501 µM [inhibitor, partial curve]
NS(=O)(=O)c1ccc(Nc2nc(-c3cccc([N+](=O)[O-])c3)cs2)cc1 | inconclusive: 39.8 µM [inhibitor, single point]
C#CCn1c(=NC(=O)c2sc3ccccc3c2Cl)sc2cc(S(N)(=O)=O)ccc21 | inconclusive: 8.91 µM [inhibitor, full curve]
O=C(c1ccccc1OCc1ccccc1Br)N1CCN(c2ncccn2)CC1 | inconclusive: 39.8 µM [inhibitor, single point]
CCOC(=O)Nc1ccc(OCc2nnc3c4ccccc4c(C)nn23)cc1 | inactive
Cc1cc(C)c2c(N)c(C(=O)N3CCN(c4ncccn4)CC3)sc2n1 | inconclusive: 31.6 µM [inhibitor, single point]
Cc1cccc2cc(C#N)c(N3CCN(C)CC3)nc12 | inconclusive: 35.5 µM [inhibitor, single point]
c1ccc(-c2cc(-c3nnco3)c3ccccc3n2)nc1 | inconclusive: 39.8 µM [inhibitor, single point]
Cc1c(Cl)ccc2c(C(=O)NC(C)c3ccncc3)cc(-c3ccncc3)nc12 (stereo unspecified) | inactive
Nc1ccc2nc(-c3cccs3)[nH]c2c1 | inconclusive: 25.1 µM [inhibitor, partial curve]
O=c1[nH]c2cc3c(cc2cc1CN(Cc1ccco1)C(=S)NCCCN1CCOCC1)OCCO3 | inconclusive: 28.2 µM [inhibitor, partial curve]
COc1ccc(COCC(O)CN2CCC(CN3C(=O)c4cccc5cccc(c45)C3=O)CC2)cc1OC (stereo unspecified) | inconclusive: 28.2 µM [inhibitor, partial curve]
Cc1cc(C)c2c(=O)n(CC(=O)NCCCN3CCN(c4ccccc4F)CC3)sc2n1 | active: 28.2 µM
Cc1cc(C(=O)CN2C(=O)C(=O)N(Cc3ccccc3)C2=O)c(C)n1-c1ccccc1F | inactive
CCOc1ccccc1Oc1c(C)oc2cc(OC(=O)c3ccco3)ccc2c1=O | inconclusive: 28.2 µM [inhibitor, partial curve]
Cc1ccc(-c2cnc3cc(C)nn3c2)cc1 | inconclusive: 35.5 µM [inhibitor, single point]
Cc1nc(CS(=O)(=O)c2ccccn2)sc1C(=O)NNC(=O)c1ccc(Cl)cc1 | inactive
